Molecules are shown by their SMILES. Whole data set: some 110,000 compounds, median “z-score” near -0.1, cut for the highest 2% near 2. The list shows a part of the results. Calls of active or inactive are those of the source.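 How the source made its calls: active means z-score in the third read window above 3 or below -3; inactive means the rest.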

The test deals with Metabotropic glutamate receptor 8 (Rattus norvegicus) (UniProt P70579). In words: mGluR8 Gi/Go-coupled signaling modulation – cell-based, rat, thallium flux, HTS, primary screen (AID 488969). The conditions noted are these: HEK293 rat mGluR8, GIRK (G protein-gated inwardly rectifying potassium channel) thallium flux, FluoZin2; at 10 µM; stronger effect = higher value; submaximal glutamate (EC20) added with thallium.
Sequence of UniProt P70579 (P70579 whole entry, looked up): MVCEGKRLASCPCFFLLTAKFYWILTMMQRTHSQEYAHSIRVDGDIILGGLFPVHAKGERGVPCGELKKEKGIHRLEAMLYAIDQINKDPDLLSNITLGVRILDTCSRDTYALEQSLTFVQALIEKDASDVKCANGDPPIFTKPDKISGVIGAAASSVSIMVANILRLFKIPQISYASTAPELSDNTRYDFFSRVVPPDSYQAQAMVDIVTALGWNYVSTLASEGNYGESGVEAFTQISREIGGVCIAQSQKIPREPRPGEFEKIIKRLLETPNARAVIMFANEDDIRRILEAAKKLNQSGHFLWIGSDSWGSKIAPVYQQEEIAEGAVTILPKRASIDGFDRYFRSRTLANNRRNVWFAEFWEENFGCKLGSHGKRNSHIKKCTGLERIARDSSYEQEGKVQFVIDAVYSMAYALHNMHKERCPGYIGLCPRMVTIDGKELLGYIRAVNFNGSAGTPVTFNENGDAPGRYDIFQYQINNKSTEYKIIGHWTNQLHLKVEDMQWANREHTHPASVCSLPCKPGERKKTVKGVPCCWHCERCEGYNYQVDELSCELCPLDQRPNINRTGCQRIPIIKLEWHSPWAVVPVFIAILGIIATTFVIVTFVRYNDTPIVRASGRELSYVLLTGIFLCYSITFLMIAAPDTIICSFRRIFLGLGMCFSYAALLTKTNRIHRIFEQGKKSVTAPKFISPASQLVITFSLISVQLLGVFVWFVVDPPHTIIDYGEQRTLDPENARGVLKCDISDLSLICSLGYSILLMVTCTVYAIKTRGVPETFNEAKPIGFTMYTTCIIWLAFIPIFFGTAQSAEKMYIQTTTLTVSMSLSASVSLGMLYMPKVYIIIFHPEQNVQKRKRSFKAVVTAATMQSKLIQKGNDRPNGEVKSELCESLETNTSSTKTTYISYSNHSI
For the molecule `Cc1ccc(C(=O)CSc2nnc3c4ccccc4nc(C(C)(C)C)n23)cc1`, the z-score stood at 0.285.
With `O=C(CSc1nc2ccccc2c(=O)n1-c1ccccc1)N1CCCc2ccccc21`, the z-score was -0.91.
In the case of `CCOC(=O)Cc1csc(SCC(=O)NC(C)C23CC4CC(CC(C4)C2)C3)n1` (stereo not drawn) it was -0.23.
In turn, `Cc1ccc(CSc2ccc3nnc(-c4cccnc4)n3n2)cc1` showed a z-score of -0.711.
With `Cc1ccc(Cn2nnc(C(=O)Nc3cc(C)ccc3C)c2N)cc1` the figure was -0.277.
On to `Cc1ccccc1Cc1c(C)nc2c(C(=O)NCc3ccc4c(c3)OCO4)cnn2c1C`, for which the z-score stood at 0.227.
In the case of `CC1CCc2c(c3ccccc3[nH]c2=O)O1` (stereo not drawn) it was -0.168.
With `COc1ccc2cc(/C=N/NC(=O)CSCc3ccc([N+](=O)[O-])cc3)c(Cl)nc2c1` the figure was -0.344; with `O=C(N/N=C/c1cccc(F)c1)c1cc(-c2ccco2)nc2ccccc12`, -0.131.
In the case of `CCn1c(SCC(=O)Nc2cc(C)c(Cl)cc2OC)nnc1-c1ccco1` it was -1.44.
Consider `COC(=O)c1[nH]c2c(c1C)C(=O)CC(c1cccs1)C2` (stereo not drawn), for which the z-score is -0.349.
With `O=C(NCc1ccco1)c1cccc(F)c1` the figure was 0.795; with `COc1cc2cc3c(N)c(C(=O)Nc4sc(C)c(C)c4C#N)sc3nc2cc1OC`, 0.0438.
For `O=C(CSc1nc(-c2ccccc2Cl)ns1)NCc1ccc2c(c1)OCO2`, the z-score was -0.236.
With `CCn1c(=O)n(Cc2ccco2)c(=N)c2c3c(sc21)COC(C)(C)C3` the figure was -0.025.
`Cc1ccc(NC2=Nc3ccccc3N3C2=Nc2c(c(C)nn2-c2ccccc2)C3c2ccc(O)c(O)c2)cc1` (stereo not drawn) had a z-score of -0.179.
Molecule `Cc1cccc(C)c1Nc1nnc(SCc2nc3ccccc3s2)s1` had a z-score of -0.281.
With `O=C(O)c1cc(NCc2c(F)cccc2Cl)ccc1N1CCOCC1` the figure was -0.908; with `O=C(NC(=S)Nc1ccc2oc(=O)ccc2c1)c1ccc(-c2cccc(Cl)c2Cl)o1`, 0.766; with `Cn1c(SCC(=O)OCC(=O)c2ccccc2)nnc1-c1cccs1`, 0.26.
With `CC12C(=O)N(c3cccc4cccnc34)C(=O)C1C1C=CC2C1` (stereo not drawn) the figure was 0.818; with `O=C(Nc1ccc(Cc2ccncc2)cc1)c1ccc(Cl)c([N+](=O)[O-])c1`, -0.0949; with `CC(NC(=O)C1CCC1)c1ccc(Br)cc1` (stereo not drawn), -0.264.
With `COc1nc(OC)nc(N2CCC(C(=O)NCc3ccc(F)cc3)CC2)n1` the figure was -2.05.
`COc1cc2[nH]c3c(=O)n(CCN(C(C)C)C(C)C)cnc3c2cc1OC` displayed a z-score of -0.405.
With `COC(=O)N/N=C\c1c(C)nn(-c2ccccc2)c1Cl` the figure was -0.389; with `CCOC(=O)c1[nH]c(CSc2nnc(-c3ccc(OC)cc3)o2)c(C(=O)OCC)c1C`, 0.245.
With `CCCOc1ccc(C2(C(=O)O)CCCC2)cc1` the figure was 0.219; with `COC(=O)c1sc(N)c(C(=O)OC)c1COC(=O)c1c(C)noc1C`, -0.374; with `CC1CCc2c(sc(NC(=O)CN3CCN(C(=O)c4ccco4)CC3)c2C#N)C1` (stereo not drawn), 0.101.
With `CCCCNC(=S)N(C)/N=C/c1ccc(OCC(=O)Nc2ccc(OC)cc2)c(OC)c1` the figure was -0.056; with `COc1ccccc1CSc1ncc(-c2ccc([N+](=O)[O-])cc2)[nH]1`, -0.488.
Take `Cc1cc(=O)[nH]c(N/N=C/C2=C(N3CCOCC3)C(=C\c3ccc(Cl)cc3)/CC2)n1`: the z-score is -0.00507.
For `Cc1cc(=O)n2[nH]c(N3C(=O)CCC3=O)nc2n1`, the z-score worked out at 1.24.
With `COC(=O)C1C(c2ccc(OC)c(OC)c2)NC(c2ccc(OC)c(OC)c2)C(C(=O)OC)S1(=O)=O` (stereo not drawn) the figure was 1.22; with `CC1(C(=O)NC2CCCCC2)CCC(=O)N1Cc1cccnc1` (stereo not drawn), 0.767.
With `CC/C(=N/Nc1ccccc1)c1cnnc(-c2ccccc2)n1` the figure was 0.574.
With `CN(C)/C=C/C(=O)c1ccccc1F` the figure was 0.071; with `Cc1cccc(C)c1NC(=O)CSc1nnc(Cn2nnc(-c3ccccc3)n2)n1-c1ccccc1`, -0.961.
`COC(=O)c1cc(NC(=O)CN2CCOCC2)cc(C(=O)OC)c1` yielded a z-score of -0.474.
With `Oc1ccc(Br)cc1-c1cc(-c2ccccc2)n[nH]1` the figure was -0.0523.
In the case of `COC(=O)c1ccc(CS(=O)(=O)c2ccc(C)cc2)cc1` it was -0.578; in that of `CN(C)S(=O)(=O)c1ccccc1C#N`, 0.372; in that of `CCOC(=O)c1cc(-c2ccccc2)n(CC(=O)Nc2cccc(OC)c2)c1C`, -0.0973.
In the case of `CC1(C)Cc2c(sc3nn[nH]c(=O)c23)CO1` it was -0.0436.
In the case of `CCn1c(Cn2nnc(-c3ccccc3)n2)nnc1SCC(=O)Nc1cccc(C)c1C`, the z-score was 0.0396.
In the case of `CS(=O)(=O)c1ccc2nc(NC(=O)CN3CCN(Cc4ccccc4)CC3)sc2c1` it was 0.494.
With `Cc1ccc(C)c(NC(=O)Cn2nc(C(F)(F)F)cc2C2CC2)c1` the figure was -0.0232; with `Cc1ccc(-c2nc3ccccn3c2NCc2ccc3c(c2)OCO3)cc1`, -0.47; with `O=C(Cn1cnc([N+](=O)[O-])c1)NC1CCCC1`, -0.0748.
`CC1C/C(=N\NC(=O)CCc2ccc(S(=O)(=O)N3CCOCC3)cc2)CC(C)(C)C1` (stereo not drawn) showed a z-score of -0.554.
In the case of `COc1cc(C(=O)NCCCN2CCCC2=O)cc(OC)c1OC` it was 0.0299; in that of `CC1(C)Cc2c(sc3nc(-c4ccccc4Cl)n(N)c(=O)c23)CO1`, -0.232; in that of `Nc1nc2n(n1)C(c1ccccc1)CC(c1ccc(F)cc1)N2` (stereo not drawn), 1.08.
With `COc1cc(S(=O)(=O)Nc2ccccn2)ccc1F` the figure was -0.166.
In the case of `O=C(CCCOc1ccccc1)Nc1nnc(C2CCCO2)s1` (stereo not drawn) it was 1.18; in that of `O=C(COc1ccc(S(=O)(=O)NC2CCCCC2)cc1)NCc1ccccn1`, 0.101; in that of `Brc1ccc(-c2csc(N/N=C/c3ccc4c(c3)OCO4)n2)cc1`, 0.0227.
For the molecule `CCn1nccc1C(=O)Nc1ccc(S(=O)(=O)NC23CC4CC(CC(C4)C2)C3)cc1`, the z-score is 0.141.
With `COc1ccc(OCC(=O)Nc2cccc3ncccc23)cc1` the figure was 0.0307.
Regarding `Cc1ccc(N(C(=O)C2CCCC2)C2C=CS(=O)(=O)C2)cc1C` (stereo not drawn), the z-score amounted to 0.364.
In the case of `Cc1ccc2nc(-c3ccc(NC(=O)CN4C(=O)NC(C)(c5ccc(OC(F)F)cc5)C4=O)cc3)sc2c1` (stereo not drawn), the z-score was -0.0637.
In the case of `CCCCc1c(CCC)c(=N)c2ccccc2n1C` it was -0.341; in that of `NC(=O)CSc1ncc(-c2ccccc2)[nH]1`, 0.142.
In the case of `CCOC(=O)c1c(C)n(C)c2ccc(OCCN(C)C)cc12` it was 0.165; in that of `COc1cc(/C=N/NC(=O)c2cccnc2)ccc1OC(=O)c1ccco1`, 0.0474; in that of `O=C1OCc2cc(NC(=O)C3CCCO3)ccc21` (stereo not drawn), 0.444.
With `Cc1cccc(C)c1NC(=O)Cn1nc(-c2ccccc2)nc1-c1ccccc1` the figure was -0.0804; with `CS(=O)(=O)CCC(C(=O)OCc1ccc(Br)cc1)N1C(=O)c2ccccc2C1=O` (stereo not drawn), 0.133; with `COc1ccc(OC)c(NC(=O)CCN2CCCCCC2)c1`, 0.195.
For `Cc1c(Br)c([N+](=O)[O-])nn1CCCC(=O)Nc1sc2c(c1C#N)CCC2`, the z-score is -0.0362.
In the case of `Cc1ccc(S(=O)(=O)Oc2ccc3c(c2)O/C(=C\c2cccnc2)C3=O)cc1` it was 0.0523; in that of `CCc1onc(C)c1C(=O)Nc1cc(C)ccc1OC`, -0.121.
With `COc1ccc(-c2cc(=O)oc3cc(OC(C)C(=O)O)ccc23)cc1` (stereo not drawn) the figure was -0.106; with `COc1ccc(C2SCC(=O)N2c2c(C)n(C)n(-c3ccccc3)c2=O)c(OC)c1` (stereo not drawn), -0.0885; with `COc1cc2c(C(=O)N3CCN(Cc4ccc5c(c4)OCO5)CC3)cn(C)c(=O)c2cc1OC`, -0.00768.
In the case of `Cc1ccc(C2(C)NC(=O)N(CC(=O)c3ccc(Cl)s3)C2=O)cc1` (stereo not drawn) it was 0.0536; in that of `CCOC(=O)c1cccc(-c2ccc(C=O)o2)c1`, -0.619.
Consider `CC(C)(C)N1CC(COc2ccccc2)OC1=O` (stereo not drawn), for which the z-score is -0.641.
In the case of `O=C(Cc1ccccc1)NC1CCS(=O)(=O)C1` (stereo not drawn) it was -0.249; in that of `O=C(CSc1nn(-c2ccc(F)cc2)c(=S)s1)NC(=O)NCc1ccco1`, -0.468; in that of `Cc1ccc(CSCCNC(=O)c2cccc([N+](=O)[O-])c2)cc1`, -0.0559.
In turn, `CCCCC(=O)Nc1ccc(NC(=O)c2cccs2)cn1` yielded a z-score of 0.308.
In the case of `COc1cc(/C=N/NC(=O)CSCc2ccc([N+](=O)[O-])cc2)cc(OC)c1OC` it was -0.207; in that of `COc1cc(C2NC(=O)NC(C)=C2C(=O)OCc2ccc(C)cc2)cc(OC)c1O` (stereo not drawn), -0.236; in that of `O=C(NCCc1ccc(F)cc1)c1cccs1`, 0.0095.
In the case of `Cc1ccc(CNC(=O)CCS(=O)(=O)c2ccc(Br)s2)cc1` it was -0.425.
As to `COCCNC(=O)CSc1nc2ccc(N3CCOCC3)cc2c(=O)n1Cc1ccc(OC)cc1`, the z-score stood at 0.698.
In the case of `COC(=O)CSc1nnc(-c2ccc3c(c2)OCO3)n1C` it was 0.135; in that of `O=C(Cn1cnc2cc([N+](=O)[O-])ccc2c1=O)NC(c1ccccc1)c1ccccc1`, -0.112.
In the case of `CC1CN(C)C(c2ccccc2)C(C)C12NC(=O)NC2=O` (stereo not drawn) it was 0.0301; in that of `CC(=O)c1cccc(NC(=O)C2CCN(S(C)(=O)=O)CC2)c1`, 0.0121.
With `CCn1ncc(Br)c1C(=O)Nc1sc2c(c1C(N)=O)CCC2` the figure was -0.182.
The molecule `COCCn1c(COc2ccc(C)cc2)nc2ccccc21` had a z-score of -0.333.
`CCOC(=O)/C=C1\SCC(=O)N1Cc1nnc(-c2ccccc2Br)o1` displayed a z-score of -0.304.
The molecule `CCCc1cc(=O)[nH]c(SCC(=O)Nc2ccc(OC(F)F)cc2)n1` showed a z-score of -0.196.
The molecule `COc1ccc(N2CSC3=C(C#N)C(c4cccc(OC)c4OC)CC(=O)N3C2)cc1` (stereo not drawn) came in with a z-score of -0.281.
In the case of `Cc1ccc(C)c(C(=O)N(Cc2nc(-c3ccc(Cl)cc3)no2)C(C)C)c1` it was 0.0567; in that of `COc1cc([N+](=O)[O-])ccc1NC(=S)Nc1cc(C(=O)OC(C)C)cc(C(=O)OC(C)C)c1`, -0.119; in that of `Cc1cc(C(=O)OCC(=O)Nc2ccccc2[N+](=O)[O-])c2ccccc2n1`, -0.302.
In the case of `CCCCCCn1c(CN2CCN(C(=O)OCC)CC2)nc2c1c(=O)n(C)c(=O)n2C` it was -0.0755; in that of `CCOC(=O)Cc1csc(NC(=O)c2csc(C)c2)n1`, -0.512; in that of `Cc1ccccc1C(=O)NNC(=O)c1ccc(F)cc1`, 0.0481.
With `Cc1ccc(-n2c(C)cc(=O)cc2C)c(C)c1` the figure was -0.22.
Molecule `O=C(Cc1ccc(F)cc1)c1ccc(O)cc1O` gave a z-score of -0.32.
With `Cc1sc2nc(C(C)C)nc(SCC(=O)N3c4ccccc4CC3C)c2c1C` (stereo not drawn) the figure was active: 10.2; with `COc1cc(NC(=S)NCCC(c2ccccc2)c2ccccc2)c(OC)cc1Cl`, 1.15; with `Cc1ccc(-c2[nH]nc3c2C(c2ccsc2)C(C#N)=C(N)O3)cc1` (stereo not drawn), -0.354.

Values taken from PubChem BioAssay AID488969 (Vanderbilt High Throughput Screening Facility, 2010).
